The record followed here is PubChem BioAssay AID1346428 (National Center for Advancing Translational Sciences (NCATS), 2018).

Hit rate of the full screen: of about 48,000 compounds, about 1,200 (2.5%) were called active. Not shown: some 2% with an inconclusive outcome.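 How the source made its calls: active means activation of at least 60% and not above a set upper limit (about 1 call in 100 departs from these limits); inconclusive means activation of 40% to 60%, or above that upper limit; inactive means activation under 40%.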 Some of the results follow.

This experiment concerns the target Probable G-protein coupled receptor 32 (Homo sapiens) (UniProt O75388). The experiment is described as follows: qHTS for Agonists of Human Resolvin D1 Receptor DRV1. Further: 0% is about no effect. To be noted: CHO-K1 GPR32 beta-arrestin PathHunter luminescence, 90 min; at 76.9 µM; active compounds read high; zero percent set by DMSO-only wells. The procedure, abridged: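 Agonism was scored by beta-Gal fragment complementation (chemiluminescent read, 1 h detection at ambient temperature) reporting beta-arrestin binding to GPR32 in engineered CHO-K1 cells. Compound treatment lasted 90 min at 37 C, normalized to a DMSO basal control.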
Sequence of UniProt O75388 (O75388 whole entry, looked up, the tested form may be a part): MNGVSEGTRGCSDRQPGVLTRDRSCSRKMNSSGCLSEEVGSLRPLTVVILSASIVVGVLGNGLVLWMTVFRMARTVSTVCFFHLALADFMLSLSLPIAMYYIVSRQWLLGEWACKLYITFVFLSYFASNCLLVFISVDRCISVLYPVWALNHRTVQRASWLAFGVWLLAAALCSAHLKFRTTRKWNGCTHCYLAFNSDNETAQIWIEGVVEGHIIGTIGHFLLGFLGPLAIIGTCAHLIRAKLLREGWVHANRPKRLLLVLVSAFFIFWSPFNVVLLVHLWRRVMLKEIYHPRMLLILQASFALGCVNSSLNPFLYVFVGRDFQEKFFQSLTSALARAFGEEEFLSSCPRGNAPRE
On the technique in general: Quantitative high-throughput screening tests each substance at several concentrations.
Turning to `CCOc1ccc(-c2cc(OC(=O)c3ccccc3)c3c(C)oc(C)c3c(=O)c2)cc1`, the activation is inactive: -13%. As for `Cn1nnc2c(N3CCN(c4ccccc4F)CC3)ncnc21`, the activation was inactive: -0.429%. The same measure for `COc1cc2nc(SCc3cccc(Cl)c3)n3nc(CCn4nc(C)cc4C)nc3c2cc1OC`: inactive: 3.15%; for `Cc1cc(C)cc(OCC(=O)Nc2ccc(-c3nc4ccccc4s3)cc2)c1`: active: 72.2%; for `COc1ccc(N(CC(=O)NCCc2ccccc2)S(=O)(=O)c2ccccc2)c(OC)c1`: inactive: -15.6%. As for `Nc1ncnc2c1ncn2[C@@H]1O[C@H](COP(=O)(O)OP(=O)(O)OP(=O)(O)OP(=O)(O)OC[C@@H]2O[C@H](n3cnc4c(N)ncnc43)[C@@H](O)[C@H]2O)[C@@H](O)[C@H]1O`, the activation was inactive: -5.14%.

In the case of `Cc1ccc2oc3c(c(=O)c2c1)C(c1ccccc1F)N(CCCN1CCOCC1)C3=O` (configuration not stated), the activation was inactive: -3.78%. As for `Cc1ccc(-n2c(SCC(=O)NCc3ccc(F)cc3)nc3c([nH]c4ccccc43)c2=O)cc1`, the figure is inactive: -18.3%; as for `CCCCNC(=O)CSc1nc2cc3c(cc2c(=O)n1CCCCCC(=O)NCc1ccc2c(c1)OCO2)OCO3`, inactive: -8.1%; as for `COc1cc2c(cc1OC)C(COc1ccc(F)cc1)N(C(=O)Cc1ccc(F)cc1)CC2` (configuration not stated), inactive: -10.4%. In the case of `Cc1cc(C)cc(NC(=O)CCc2c(C)nn(-c3ccc(N4CCCC4)nn3)c2C)c1`, the activation was inactive: 1.61%.

Turning to `CCOc1ccc(OCC)c(S(=O)(=O)N2CCN(c3cccc(C)c3C)CC2)c1`, the activation is inactive: -1.01%. Turning to `Cc1ccc(Nc2c(-c3ccncc3)nc3ccc(C)cn23)cc1`, the activation was inactive: -16.1%. As to `CCOC(=O)C1CCN(c2ncnc3c2nnn3C)CC1`, the activation was inactive: 2.96%. The same measure for `Cc1ccc(CN(C(=O)COc2cccc([N+](=O)[O-])c2)c2ccccn2)cc1`: inactive: -8.41%.

Turning to `Cc1ccccc1-c1nn2c(=O)cc(CN3CCN(C(=O)c4ccc(C(C)(C)C)cc4)CC3)nc2s1`, the activation is inactive: 24.7%. As for `CCOC(=O)N1CCc2c(sc3c2c(=O)n(CCc2ccccc2)c(=O)n3Cc2ccc(F)cc2)C1`, the figure is inactive: -19.5%; as for `O=C(CSc1nc(-c2ccccc2)no1)N1CCCCC1`, inactive: 4.44%. As for `COc1ccc(C(=O)CN2C(=O)N(c3ccc(C(C)=O)cc3)S(=O)(=O)c3ccccc32)cc1`, the figure is inactive: 1.33%; as for `COc1ccc(S(=O)(=O)N2CCC(n3c(C(F)(F)F)nc4cccnc43)CC2)cc1OC`, inactive: -12.7%; as for `Cc1ccc(Cn2nnc(C(=O)Nc3ccc(F)c(F)c3)c2N)cc1`, inactive: -13.2%. The same measure for `Cc1ccc(N(C)C(=O)C2CCN(S(=O)(=O)c3ccc4c(c3)CCCN4C(=O)C3CCC3)CC2)cc1`: inactive: -25%.
